PubChem BioAssay AID720709 (National Center for Advancing Translational Sciences (NCATS), 2013)
Among all 360,000 compounds or so, about 520 (0.14%) were called active. This list was built around the results that the source calls inconclusive (neither active nor inactive); the mix of calls is not that of the screen. The call rests on the fitted dose curve; in most records, active means well fitted inhibition curve with a large enough effect; inconclusive means small, poorly fitted or top-dose-only effect; inactive means no such curve, though single readings can be large or run the other way. No potency is given beside an inconclusive call; the fits are too rough.

molecular target: Rap guanine nucleotide exchange factor 3 (Homo sapiens) (UniProt O95398); experiment: qHTS for Antagonist of cAMP-regulated guanine nucleotide exchange factor 3 (EPAC1): primary screen; details: EPAC1 GEF assay, Rap1b-BODIPY-GDP exchange fluorescence; activity change, negative = inhibition: at 115 µM (top of the series); further: nearly all actives have a fitted effect of over 50% in size;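 on activity change, negative = inhibition: plate controls were vehicle for no effect and positive control for full effect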
Potency means the concentration at half of the fitted maximal effect; tags describe the fitted curve by direction and shape.

Chain of UniProt O95398 (O95398 whole entry, looked up): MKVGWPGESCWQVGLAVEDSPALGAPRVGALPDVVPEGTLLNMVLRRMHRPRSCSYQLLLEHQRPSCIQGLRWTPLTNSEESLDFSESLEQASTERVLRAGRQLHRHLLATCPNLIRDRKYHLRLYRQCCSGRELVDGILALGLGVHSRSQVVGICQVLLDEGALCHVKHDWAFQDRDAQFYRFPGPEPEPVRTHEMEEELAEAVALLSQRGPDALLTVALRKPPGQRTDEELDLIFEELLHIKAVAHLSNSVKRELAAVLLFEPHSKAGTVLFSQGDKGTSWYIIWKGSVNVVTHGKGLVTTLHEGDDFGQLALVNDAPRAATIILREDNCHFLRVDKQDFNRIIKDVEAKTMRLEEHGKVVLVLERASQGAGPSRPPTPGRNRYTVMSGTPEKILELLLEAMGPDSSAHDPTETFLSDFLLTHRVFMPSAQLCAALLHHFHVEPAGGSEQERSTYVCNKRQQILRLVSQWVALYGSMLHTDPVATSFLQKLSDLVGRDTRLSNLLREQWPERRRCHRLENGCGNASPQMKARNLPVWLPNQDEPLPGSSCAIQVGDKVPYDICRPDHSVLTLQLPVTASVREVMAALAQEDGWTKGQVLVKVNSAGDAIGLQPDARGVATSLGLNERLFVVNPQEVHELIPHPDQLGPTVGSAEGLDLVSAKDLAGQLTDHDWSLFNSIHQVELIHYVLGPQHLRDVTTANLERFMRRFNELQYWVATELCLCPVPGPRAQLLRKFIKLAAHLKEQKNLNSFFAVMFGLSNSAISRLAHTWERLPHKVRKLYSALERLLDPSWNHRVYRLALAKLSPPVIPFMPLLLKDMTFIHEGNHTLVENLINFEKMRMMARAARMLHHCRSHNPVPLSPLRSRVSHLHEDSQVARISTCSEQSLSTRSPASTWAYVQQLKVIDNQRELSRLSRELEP

| Structure (SMILES) | Potency | activity change, negative = inhibition |
| --- | --- | --- |
| Cc1ccc2nc(-c3ccccc3)cc(C(=O)N3CCN(S(=O)(=O)c4c(C)noc4C)CC3)c2c1 | inconclusive [inhibitor, single point] | – |
| CCOC(=O)c1ccc(N2C(=O)c3cccc4c(C(=O)O)ccc(c34)C2=O)cc1 | inactive | – |
| COc1ccccc1N(C(=O)c1snc(C(N)=O)c1N)C(C(=O)NC1CCCCC1)c1cccc(OC)c1OC (stereo unspecified) | inconclusive [inhibitor, partial curve] | – |
| COCCNC(=S)N(c1ccccc1)C(C)C | inconclusive [inhibitor, single point] | – |
| O=C(O)c1ccc(N/N=C/c2ccc(-c3ccc(Br)cc3)o2)cc1 | inconclusive [inhibitor, single point] | – |
| O=C(NCc1cccc(Cl)c1)C1CCC(=O)N(C2CC2)C1 (stereo unspecified) | – | inconclusive: -31% [inhibitor] |
| CCOC(=O)[C@]12CCC=C1N(Cc1ccc3c(c1)OCO3)C(=O)[C@H](CC(=O)NCc1ccc(C)o1)C2 | inactive | – |
| COc1ccc(S(=O)(=O)N2CCCCCC2)cc1C(=O)NCCOc1ccc(C)cc1 | inconclusive [inhibitor, full curve, poor fit] | – |
| N#CC1=C(N)Oc2cc(Nc3ccccc3)ccc2C1c1ccncc1 (stereo unspecified) | inconclusive [inhibitor, single point] | – |
| COc1ccc(NC(=O)C(=O)NCCC2CCCCN2S(=O)(=O)c2ccc(F)cc2)cc1 (stereo unspecified) | inconclusive [inhibitor, partial curve] | – |
| Cc1ccccc1CSc1nnc(Cn2c(=O)sc3ccccc32)n1C | inconclusive [inhibitor, partial curve] | – |
| CC(=O)NC1C(=O)N(CCN2CCOCC2)c2ccc(Br)cc21 (stereo unspecified) | inconclusive [inhibitor, full curve] | – |
| CC(=O)Nc1sc(N/N=C\c2cccc(Cl)c2)nc1-c1cccs1 | inactive | – |
| COc1ccc(-c2nc(-c3ccccn3)ncc2S(C)(=O)=O)cc1 | inactive | – |
| O=Cc1s/c(=N\S(=O)(=O)c2ccccc2)n(CCCCl)c1Cl | inactive | – |
| CCC(C)c1ccc(NC(=O)NCCN2CCCCC2)cc1 (stereo unspecified) | inactive | – |
| Cn1cc(CN2CCCC(C(=O)Nc3cccc(-c4cc5ccccc5[nH]4)c3)C2)cn1 (stereo unspecified) | inconclusive [inhibitor, single point] | – |
| CCOC(=O)C[C@H]1c2ccccc2S(=O)(=O)N1Cc1cccc(C(F)(F)F)c1 | inconclusive [inhibitor, full curve, poor fit] | – |
| Cc1ccc(-n2nc(C)c3c(C)c(CCC(=O)NCCCOC(C)C)c(C)nc32)cc1 | inconclusive [inhibitor, full curve, poor fit] | – |
| CCCCN(CC)CCNC(=O)c1cc2c(-c3ccccc3F)nn(C)c2s1 | inconclusive [inhibitor, single point] | – |
| Cc1[nH]c2ccccc2c1/C=N\NC(=O)Cn1nnc(-c2ccccc2)n1 | inconclusive [inhibitor, single point] | – |
| O=C(OCc1ccccc1C(F)(F)F)c1cc([N+](=O)[O-])ccc1N1CCOCC1 | inconclusive [inhibitor, full curve] | – |

| Structure (SMILES) | Potency | activity change, negative = inhibition |
| --- | --- | --- |
| C/C=C\C=C/C(=O)Nc1cccc(C2=NOC3(C2)C[C@@H](C(N)=O)N(C(=O)CCCCC)C3)c1 (stereo partly specified) | inactive | – |
| CSc1ccc(CN2CCC(n3nccc3NC(=O)c3ccccc3C)CC2)cc1 | inactive | – |
| COc1cc(CN(C)CC2CCCN(CCc3ccccc3F)C2)cc(Cl)c1OC (stereo unspecified) | inconclusive [inhibitor, single point] | – |
| CC(C(=O)NCc1ccc(F)cc1)n1ccc2cc(S(=O)(=O)N3CCCC3)ccc21 (stereo unspecified) | inconclusive [inhibitor, partial curve] | – |
| CCOC(=O)C1C2C=CC3(CN(c4ccc(Cl)c(F)c4)C(=O)C13)O2 (stereo unspecified) | inconclusive [inhibitor, single point] | – |
| CCn1c(N)[n+](CC(=O)Nc2ccc(SC(F)F)cc2)c2ccccc21 | inactive | – |
| Cc1cc2oc(=O)cc(CN3CCCCC3C)c2cc1C (stereo unspecified) | inactive | – |
| COc1ccccc1/C=C/C(=O)Nc1cccc(C(C)=O)c1 | inconclusive [inhibitor, full curve, poor fit] | – |
| CCOC(=O)C1=C[C@@H](C(C)C)N(S(=O)(=O)c2ccc([N+](=O)[O-])cc2)[C@H]1c1ccccc1 | inconclusive [inhibitor, partial curve, poor fit] | – |
| C#CC[N+]1(CC#Cc2ccccc2)CCCC1 | inactive | – |
| COc1ccc(C2=CC3=C(Br)C(=O)C(C)(O)C(=O)C3=CO2)cc1 (stereo unspecified) | inactive | – |
| O=C(/C=C/c1ccco1)Nc1cccc(C(=O)Nc2ccccc2C(=O)O)c1 | active: 50.1 µM | – |
| CC(CCC(C)C(C)(C)C)[C@@H]1CC[C@H]2C3C[C@H](OS(O)(=S)=S)[C@H]4C[C@H](OS(O)(=S)=S)[C@@H](OS(O)(=S)=S)C[C@]4(C)[C@H]3CC[C@]12C (stereo partly specified) (tested in a mixture with another compound) | active: 15.8 µM | – |
| CC(=O)c1cccc(Nc2cc(C)nc3ccccc23)c1 | – | inconclusive: -30.4% [inhibitor] |
| Cc1n[nH]c(C)c1Sc1ccccc1N=Cc1cc(Cl)cc([N+](=O)[O-])c1O | inconclusive [inhibitor, partial curve, poor fit] | – |
| O=C(COC(=O)COc1ccc2ccccc2c1)Nc1cc(C(F)(F)F)ccc1N1CCOCC1 | inconclusive [inhibitor, partial curve] | – |
| OCCN(CCO)c1cc2c3ccccc3ccc2c2ccccc12 | inconclusive [inhibitor, partial curve] | – |
| CCc1c(C)nc(N2CCN(c3ccccc3)CC2)[nH]c1=O | inconclusive [inhibitor, single point] | – |
| CSCCC(NC(=O)c1ccco1)C(=O)NCc1ccc2c(c1)OCO2 (stereo unspecified) | inactive | – |
| O=c1c2ccccc2sn1-c1ccc(S(=O)(=O)N2CCCCC2)cc1 | inactive | – |
| O=C(O)CCC(=O)Nc1ccc(NC(=O)c2ccc(Cl)cc2Cl)c(Cl)c1 | inconclusive [inhibitor, single point] | – |
| O=C(CCN1CCN(C/C=C/c2ccccc2)CC1)Nc1ccc(Cl)cc1 | inactive | – |

| Structure (SMILES) | Potency | activity change, negative = inhibition |
| --- | --- | --- |
| COc1cc(NC(=O)Cn2cnc(C(=O)Nc3ccc(C)c(C)c3)n2)cc(OC)c1OC | inconclusive [inhibitor, partial curve] | – |
| O=c1[nH]c2c(s1)C(c1ccco1)C1C3CCC(C3)C1S2 (stereo unspecified) | inconclusive [inhibitor, partial curve, poor fit] | – |
| CC1(N(O)/C=C2\C=CC=CC2=O)CCCCC1=O (stereo unspecified) | inconclusive [inhibitor, partial curve] | – |
| Cn1nc(-c2ccccc2)cc1NC(=O)[C@@H]1O[C@H](CO)[C@H](O)[C@H](O)[C@H]1O | – | inconclusive: -5.48% [inhibitor] |
| CCSCc1nnc(SCC(=O)Nc2cccc(C(C)=O)c2)n1C | inconclusive [inhibitor, single point] | – |
| CN(C)c1ccc2nc3ccc(=[N+](C)C)cc-3sc2c1 | inactive | – |
| O=C(NN=C1CCCC1)C1COc2ccccc2O1 (stereo unspecified) | inconclusive [inhibitor, full curve, poor fit] | – |
| Cc1ccc(S(=O)(=O)Nc2nc(-c3ccccc3)cs2)cc1 | inactive | – |
| Cc1ccc(NC(=O)C(C)OC(=O)COc2cccc(C(F)(F)F)c2)cc1 (stereo unspecified) | inconclusive [inhibitor, full curve, poor fit] | – |
| COc1ccc(NC(=O)C(=O)NNC(=O)c2cccs2)cc1 | inconclusive [inhibitor, partial curve, poor fit] | – |
| Cc1cc(C)c2[nH]c(C(=O)Nc3ccc(F)cc3Br)cc2c1 | inconclusive [inhibitor, partial curve, poor fit] | – |
| CC(=O)Nc1ccc(NC(=O)C(C)Sc2n[nH]c(=O)n2Cc2ccccc2)cc1 (stereo unspecified) | inconclusive [inhibitor, single point] | – |
| Cc1nn(-c2ccccc2)c(N2CCCC2)c1/C=C1\N=C(c2ccc(OC(C)C)cc2)OC1=O | inactive | – |
| Cc1cccc(NC(=O)NC2CC(=O)N(c3ccc4c(c3)OCCO4)C2)n1 (stereo unspecified) | inconclusive [inhibitor, partial curve] | – |
| COc1ccc2cc(C(=O)C3CCCN(C(=O)c4sc(C)nc4C)C3)ccc2c1 (stereo unspecified) | – | inconclusive: -32.4% [inhibitor] |
| CCn1ccc(C(=O)Nc2ccccc2SC)n1 | inconclusive [inhibitor, partial curve, poor fit] | – |
| Nc1nonc1N/N=C/c1c(O)ccc2ccccc12 | inconclusive [inhibitor, partial curve] | – |
| O=C(NC(c1ccc(F)cc1)c1ccc2ccccc2n1)C1CCN(CCOc2ccc(Cl)cc2)CC1 (stereo unspecified) | inactive | – |
| Cc1cc([N+](=O)[O-])c2ccccc2c1NS(=O)(=O)c1ccccc1 | inconclusive [inhibitor, single point] | – |
| CCC(C)(C)n1nnnc1C(c1cc2cc(C)ccc2[nH]c1=O)N1CCCC1 (stereo unspecified) | inconclusive [inhibitor, single point] | – |
| CCCCCCSc1nc(O)c(C2OC(=O)c3c2ccc(OC)c3OC)c(=O)n1-c1ccccc1 (stereo unspecified) | inconclusive [inhibitor, single point] | – |
| Cc1nnc(N/N=C\c2ccc(-c3ccccc3[N+](=O)[O-])o2)n1N | inconclusive [inhibitor, single point] | – |
